Test results published in paper PMC4336329 (PLoS ONE, 2015).
In all, about 310,000 compounds went through this assay and about 2,200 (0.71%) showed an effect of 50% or more. The effect is printed as a negative number. Some of the results follow.

Molecular target: human ether-à-go-go-related gene (hERG) potassium channel (human, UniProt Q12809)
Test: primary screen, population patch clamp on CHO cells stably expressing hERG

human ether-à-go-go-related gene (hERG) potassium channel, sequence (Q12809 whole entry, looked up): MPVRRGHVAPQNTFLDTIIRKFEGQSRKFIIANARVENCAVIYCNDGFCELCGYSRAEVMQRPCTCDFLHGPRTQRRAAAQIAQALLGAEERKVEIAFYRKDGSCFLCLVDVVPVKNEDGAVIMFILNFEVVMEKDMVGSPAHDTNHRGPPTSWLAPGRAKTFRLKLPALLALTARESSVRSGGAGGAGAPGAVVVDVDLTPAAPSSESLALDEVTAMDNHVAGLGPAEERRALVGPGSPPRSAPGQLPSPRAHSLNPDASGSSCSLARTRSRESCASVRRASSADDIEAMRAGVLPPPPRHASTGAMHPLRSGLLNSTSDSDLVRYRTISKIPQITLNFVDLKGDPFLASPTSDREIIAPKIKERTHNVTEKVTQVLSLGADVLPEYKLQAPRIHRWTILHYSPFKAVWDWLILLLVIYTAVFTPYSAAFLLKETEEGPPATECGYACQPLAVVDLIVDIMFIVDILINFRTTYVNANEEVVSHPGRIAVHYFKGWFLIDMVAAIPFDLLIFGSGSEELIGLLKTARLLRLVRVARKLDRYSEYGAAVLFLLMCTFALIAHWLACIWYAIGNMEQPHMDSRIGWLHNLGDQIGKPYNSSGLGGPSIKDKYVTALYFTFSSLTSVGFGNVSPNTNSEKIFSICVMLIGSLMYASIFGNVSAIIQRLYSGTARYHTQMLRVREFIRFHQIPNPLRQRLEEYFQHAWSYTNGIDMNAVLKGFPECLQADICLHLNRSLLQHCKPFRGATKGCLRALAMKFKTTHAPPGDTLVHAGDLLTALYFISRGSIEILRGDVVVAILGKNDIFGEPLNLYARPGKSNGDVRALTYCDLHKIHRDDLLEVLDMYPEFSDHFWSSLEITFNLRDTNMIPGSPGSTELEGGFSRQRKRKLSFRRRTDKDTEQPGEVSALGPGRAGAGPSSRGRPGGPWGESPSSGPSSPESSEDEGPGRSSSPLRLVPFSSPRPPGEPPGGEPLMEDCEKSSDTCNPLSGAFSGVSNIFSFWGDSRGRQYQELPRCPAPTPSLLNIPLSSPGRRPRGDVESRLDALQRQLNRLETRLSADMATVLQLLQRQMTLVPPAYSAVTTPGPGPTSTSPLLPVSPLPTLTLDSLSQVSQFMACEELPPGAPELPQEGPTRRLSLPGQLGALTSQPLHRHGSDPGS

| SMILES | hERG current change (%, negative = inhibition) at 1uM |
| --- | --- |
| O=C(NCc1ccc(F)cc1)c1ccc(N2CCOCC2)c([N+](=O)[O-])c1 | -9.75% |
| CCOC(=O)c1c(CN2CCCCC2)oc2ccc(OC)cc12.Cl | -19.6% |
| O=C(COC(=O)CNS(=O)(=O)c1ccc(Br)cc1Cl)Nc1ccc(N2CCOCC2)cc1 | 19.5% |
| CN1N=C(C(=O)N2CCc3c([nH]c4ccccc34)C2c2ccccc2Cl)CCC1=O (stereo not drawn) | -5.74% |
| COc1cc(C(=O)Nc2ccncc2)c([N+](=O)[O-])cc1OC | 11.6% |
| Nc1nnn(-c2ccccc2)c1-c1ccccc1 | 13% |
| O=C(NCc1ccccc1)c1cccnc1Sc1ccccc1 | 16.1% |
| CC(C)OC(=O)c1ccc(N2CCN(c3ccc(F)cc3)CC2)nc1 | 7.03% |
| Cc1cccc(Nc2nnc(SC/C(O)=C(\C#N)c3nc4ccccc4[nH]3)s2)c1 | 12.8% |
| Cc1ccc(N(C(=O)c2csnn2)C(C(=O)NC(C)(C)C)c2cccs2)cc1 (stereo not drawn) | -8.47% |
| Cc1cccc(NC(=O)C2CCN(S(=O)(=O)c3ccc4ccccc4c3)CC2)n1 | 4.11% |
| CCCOC(=O)CCNc1n[nH]c(=O)[nH]c1=O | 6.02% |
| O=C(NCc1ccco1)C1CCN(C(=O)c2ccc([N+](=O)[O-])cc2)CC1 | 5.51% |
| Cc1ccc(NC(=O)CSc2nc3c([nH]c4ccccc43)c(=O)n2C)cc1 | 7.78% |
| COc1cc(OC)cc(C(=O)Nc2ccc(-c3nc4ccccc4o3)cc2)c1 | 0.655% |
| O=c1cnnc(N/N=C/c2cccs2)[nH]1 | 12.9% |
| O=C(O)c1ccc(NCc2ccncc2)cc1 | -8.36% |
| Cc1ccc(-n2nc3c(N4CCC(C(=O)NCc5cccc(F)c5)CC4)nnc(C)c3c2C)cc1 | 11.9% |
| Cc1ccc(CCNC(=O)CCc2nc3ccccc3[nH]2)cc1 | -3.85% |
| c1cc(-c2nnn(CCOCCn3nnc(-c4ccncc4)n3)n2)ccn1 | 8.91% |
| CC(=O)Nc1ccc(OC(=O)c2cc3ccccc3oc2=O)cc1 | -3.56% |
| O/N=C/c1cc(Br)cs1 | 12.7% |
| C(=C\c1ccccc1)/C=N/N1CCN(Cc2ccccc2)CC1 | 4.41% |

| SMILES | hERG current change (%, negative = inhibition) at 1uM |
| --- | --- |
| CCCn1c(NC(=O)C2CCN(C(=O)c3ccc(F)cc3)CC2)nc2ccccc21 | -8.4% |
| COc1ccccc1NC(=O)CSc1nc2c(oc3ccccc32)c(=O)n1C | 10.2% |
| O/N=C1/CCc2nonc2/C1=N/O | -4.66% |
| COc1cccc(-c2cn(C[C@H]3CC[C@@H]([C@@H]4CC[C@H](Cn5cc(-c6cccc(OC)c6)nn5)O4)O3)nn2)c1 | -21.1% |
| COc1ccc(-c2cc(C)no2)cc1S(=O)(=O)N1CCCCC1 | 11.3% |
| Cn1c(=O)c(=O)n(C)c2cc([N+](=O)[O-])c([N+](=O)[O-])cc21 | 13.1% |
| COc1ccc(CCC(=O)N2CCc3ccccc32)cc1 | -8.55% |
| COc1cc(OC)c(C(=O)O/N=C(\N)c2ccccc2)cc1OC | 9.78% |
| COC(=O)c1cnn(C(=O)c2ccccc2Br)c1N | 2.87% |
| NC(=O)C1(N2CCCCC2)CCN(c2ccc3nnc(-c4ccccc4)n3n2)CC1 | 0.0345% |
| CCN(Cc1ccccc1)C(=O)COC(=O)c1cc(Cl)nc(Cl)c1 | 14.5% |
| COc1ccc(C(c2nnnn2CCc2ccccc2)N2CCN(C3CCCC3)CC2)cc1OC.Cl (stereo not drawn) | -20.8% |
| CC(C)N(CC(N)=O)C(=O)c1sc2cc(F)ccc2c1Cl | 8.46% |
| C(=N\N1CCN(c2ccccc2)CC1)/c1ccccc1 | 7.61% |
| COC(=O)C(C)N=Cc1ccccc1 (stereo not drawn) | 10% |
| CCCOc1ccc(/C=N/Nc2cc(N3CCOCC3)ncn2)c(O)c1 | 18.2% |
| Clc1ccc(CN(CC2CCCO2)C(c2cccs2)c2nnnn2C2CCCC2)cc1 (stereo not drawn) | 7.02% |
| C(=N\N1CCN(C2c3ccccc3-c3ccccc32)CC1)/c1ccncc1 | 8.08% |
| COC(=O)C(Cc1ccc(O)cc1)NC(=O)c1ccccc1 (stereo not drawn) | 8.67% |
| Cc1nc(NC(=O)c2cncc(Br)c2)ccc1Br | 8.02% |
| O=[N+]([O-])c1cccc(/C=N/Nc2ncc(Br)cn2)c1 | 19.4% |
| Cc1cccc(N(CC(=O)N2CCOCC2)S(C)(=O)=O)c1 | 10.5% |
| O=C(CC1Nc2cccc3cccc(c23)NC1=O)Nc1ccccc1 (stereo not drawn) | 6.48% |

| SMILES | hERG current change (%, negative = inhibition) at 1uM |
| --- | --- |
| O=C1CNC(=O)N1Cc1ccc(Br)cc1 | 3.57% |
| CCCc1[nH]nc2c1C(c1ccc(OC(=O)N3CCOCC3)c(OC)c1)C(C#N)=C(N)O2 (stereo not drawn) | 10.7% |
| O=C(NCCc1ccccc1)C(c1ccccc1F)N(C(=O)c1csnn1)C1CC1 (stereo not drawn) | 10.4% |
| C/C=C/C(=O)OCC(=O)Nc1ccc(C)c(S(=O)(=O)N(C)C)c1 | 10.7% |
| CCNc1nc(OC)nc(SCC(N)=O)n1 | 16.4% |
| COc1cc(/C=C2\SC(=S)N(Nc3ccccc3)C2=O)cc(OC)c1OC | 1.08% |
| CCOP1(=S)Oc2cc3c(cc2C(C(=O)OC)(C(F)(F)F)O1)OCO3 (stereo not drawn) | 5.27% |
| Cc1nc(C)c(-c2ccc(SCc3ccccc3F)nn2)s1 | 14.6% |
| CCSc1nnc(-c2cccs2)o1 | 12.2% |
| CCCc1cc(=O)n2[nH]c(C)c(-c3ccc(OC)cc3)c2n1 | 8.54% |
| CCOC(=O)CSc1nc(N2CCOCC2)c2c(c1C#N)CC(C)(C)OC2 | 4.1% |
| Cc1ccc(NS(=O)(=O)c2ccc(OCC(=O)NCC3CCCO3)cc2)cc1 (stereo not drawn) | 5.92% |
| CC(C)c1ccc(NC(=O)COC(=O)/C=C/c2cccc([N+](=O)[O-])c2)cc1 | 6.15% |
| COCCn1c(=O)[nH]c(=O)c2cc(C(=O)c3cc(Cl)ccc3O)cnc21 | 3.25% |
| O=C(COC(=O)c1ccc(Br)o1)Nc1nc2ccccc2s1 | -4.47% |
| Nc1c(-c2ccc(F)cc2)cnn1C1CCS(=O)(=O)C1 (stereo not drawn) | 7.06% |
| O=C(C(Sc1ccccc1)c1ccccc1)N1CCOCC1 (stereo not drawn) | 4.17% |
| Cc1ccc(-c2n[nH]c(=O)c3ccccc23)cc1S(=O)(=O)Nc1ccc(F)cc1 | 13.3% |
| CC(CC(F)(F)F)N1CCC(n2nccc2NC(=O)CCOc2ccccc2)CC1 (stereo not drawn) | 7.12% |
| COc1ccc(/C=C/C(=O)NC(=S)NCc2ccccc2)cc1OC | 11.8% |
| O=C(NCC1CCCO1)c1ccc(COc2ccccc2)cc1 (stereo not drawn) | -5.37% |
| O=C(N=C1SC2CS(=O)(=O)CC2N1c1ccccc1)C1CC1 (stereo not drawn) | 20.5% |
| Cc1ccc(S(=O)(=O)N2CCCC(c3nc(-c4ccc(C)o4)no3)C2)cc1 (stereo not drawn) | 16% |

| SMILES | hERG current change (%, negative = inhibition) at 1uM |
| --- | --- |
| CCCCS/C(=C(/C#N)C(N)=O)c1cc2c([nH]1)CCCC2 | 4.58% |
| CCn1c(C)nc2cc(C(=O)N/N=C/c3ccc(OC)cc3)ccc21 | -6.56% |
| Cc1ccccc1NC1c2ccccc2C(=O)N1Cc1ccco1 (stereo not drawn) | 10.8% |
| Cn1c(C2CCCCC2)nc2ccccc21 | 9.64% |
| O=C(c1ccc2c(c1)OCO2)N1CCN(c2ccccc2F)CC1 | 6.98% |
| Cl.c1ccc(CC2CNc3ccccc3CN2)cc1 (stereo not drawn) | 9.82% |
| O=C(/C=C/c1ccc(F)cc1)c1cc(Br)ccc1O | 13% |
| CCOC(=O)[C@H]1[C@H]2COc3ccc(OC)cc3[C@@H]2N2C(=O)CN(CCc3c[nH]c4ccccc34)C(=O)[C@@]12C | 10.8% |
| CC1CN(C(=O)c2cc3cc([N+](=O)[O-])ccc3s2)CC(C)O1 (stereo not drawn) | -0.52% |
| Cc1ccccc1C(=O)NNC(=O)c1ccc(Br)cc1 | -1.2% |
| COc1cc(/C=N/Nc2ccccc2[N+](=O)[O-])cc(OC)c1O | 6.81% |
| COc1ccccc1N1CCN(C2CCCN(C(=O)c3ccoc3C)C2)CC1 (stereo not drawn) | 7.21% |
| CCC(C)(C)NC(=O)C(c1ccc(OC)cc1)N(CC1CCCO1)C(=O)CCC(=O)Nc1cc(C)on1 (stereo not drawn) | 0.889% |
| CCOC(=O)c1cc(NC(=O)Nc2cc(C)ccn2)c(C)nc1C | 9.8% |
| Cc1cc(NC(=O)NCc2ccccc2)c(=O)n(Cc2ccc(F)cc2)c1 | 21.1% |
| COCCn1c(SCc2cc(=O)n3ccsc3n2)nnc1-c1ccncc1 | 13.8% |
| COc1cccc(CN(C)Cc2cc(=O)oc3c(C)c(C)ccc23)c1 | 14.1% |
| Cc1nc(CN(C)C(=O)c2cc(COc3ccc4ncccc4c3)on2)cs1 | 6.62% |
| COc1c(F)c(F)c(C(=O)Nc2ccccc2N2CCN(C(=O)C(C)C)CC2)c(F)c1F | 10.4% |
| Br.N=C1CCCN1CC(=O)c1ccc(Cl)cc1 | 6.92% |
| O=C(O)CS/C(=C\c1ccc(F)cc1)c1nc2ccccc2s1 | 3.35% |
